From the supplement of paper PMC4604168 (melanoma cell lines)
The other results are listed elsewhere or left out. Many values rest on one well or one pass, so single values are uncertain.

Each compound was assayed on LB2518-MEL (assay: cell count relative to DMSO control; melanoma cells; higher = more viable cells). Settings: library dose: low library concentration; 72 h.
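Also: cell number obtained by counting DAPI-stained nuclei in high-throughput microscope images with image analysis software, screen run in 1,536-well plates.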

Row | SMILES | cell count
1 | CC(=O)O[C@@]12CO[C@@H]1C[C@H](O)[C@@]1(C)C(=O)[C@H](O)C3=C(C)[C@@H](OC(=O)[C@H](O)[C@@H](NC(=O)OC(C)(C)C)c4ccccc4)C[C@@](O)([C@@H](OC(=O)c4ccccc4)[C@H]21)C3(C)C [Docetaxel] + O=S(=O)(c1ccccc1)N(CC(F)(F)F)c1ccc(C(O)(C(F)(F)F)C(F)(F)F)cc1 [T0901317] (first compound 0.0001 µM, partner dose 1.4 µM) | 67.2%
2 | Nc1nc(F)nc2c1ncn2[C@@H]1O[C@H](CO)[C@@H](O)[C@@H]1O [fludarabine] + CCN(CC)CCCCNc1ncc2cc(-c3cc(OC)cc(OC)c3)c(NC(=O)NC(C)(C)C)nc2n1 [PD173074] (first compound 0.2 µM, partner dose 0.1 µM) | 91.1%
3 | CC(=O)c1c(C)c2cnc(Nc3ccc(N4CCNCC4)cn3)nc2n(C2CCCC2)c1=O [palbociclib] + N#Cc1c(O)c2c(-c3ccc(-c4ccccc4O)cc3)csc2[nH]c1=O [A769662] (first compound 0.04 µM, partner dose 2 µM) | 65.3%
4 | CC(=O)O[C@@]12CO[C@@H]1C[C@H](O)[C@@]1(C)C(=O)[C@H](O)C3=C(C)[C@@H](OC(=O)[C@H](O)[C@@H](NC(=O)OC(C)(C)C)c4ccccc4)C[C@@](O)([C@@H](OC(=O)c4ccccc4)[C@H]21)C3(C)C [Docetaxel] + Oc1cc(-c2nc(-c3ccccc3)[nH]c2-c2ccncc2)ccc1Cl [L779450] (first compound 0.0001 µM, partner dose 0.2 µM) | 47.4%
5 | CC(=O)c1c(C)c2cnc(Nc3ccc(N4CCNCC4)cn3)nc2n(C2CCCC2)c1=O [palbociclib] + O=C(O)C(=O)Nc1sc2c(c1C(=O)O)CCNC2 [TCS401] (first compound 0.04 µM, partner dose 1.66667 µM) | 73.1%
6 | Nc1ncn([C@H]2C[C@H](O)[C@@H](CO)O2)c(=O)n1 [decitabine] + COc1cc(N2CCC(N3CCN(C)CC3)CC2)ccc1Nc1ncc(Cl)c(Nc2ccccc2S(=O)(=O)C(C)C)n1 [NVP-TAE684] (first compound 0.1 µM, partner dose 0.08 µM) | 54.8%
7 | CC(=O)c1c(C)c2cnc(Nc3ccc(N4CCNCC4)cn3)nc2n(C2CCCC2)c1=O [palbociclib] + CCCCCCCCCCCC1=C(O)C(=O)C=C(O)C1=O [Embelin] (first compound 0.04 µM, partner dose 1.2 µM) | 63.1%
8 | CC(=O)O[C@@]12CO[C@@H]1C[C@H](O)[C@@]1(C)C(=O)[C@H](O)C3=C(C)[C@@H](OC(=O)[C@H](O)[C@@H](NC(=O)OC(C)(C)C)c4ccccc4)C[C@@](O)([C@@H](OC(=O)c4ccccc4)[C@H]21)C3(C)C [Docetaxel] + O=C1NC(=O)/C(=C/c2ccc(-c3ccc(F)cc3O)o2)S1 [AS252424] (first compound 0.0001 µM, partner dose 1 µM) | 34.4%
9 | CC(=O)O[C@@]12CO[C@@H]1C[C@H](O)[C@@]1(C)C(=O)[C@H](O)C3=C(C)[C@@H](OC(=O)[C@H](O)[C@@H](NC(=O)OC(C)(C)C)c4ccccc4)C[C@@](O)([C@@H](OC(=O)c4ccccc4)[C@H]21)C3(C)C [Docetaxel] + O=c1cc(-c2cccc3c2Sc2ccccc2S3)oc(N2CCOCC2)c1 [KU55933] (first compound 0.0001 µM, partner dose 1 µM) | 70%
10 | Nc1nc(F)nc2c1ncn2[C@@H]1O[C@H](CO)[C@@H](O)[C@@H]1O [fludarabine] + O=C(Nc1ccccc1)c1cc([N+](=O)[O-])ccc1Cl [GW9662] (first compound 0.2 µM, partner dose 2 µM) | 93.4%
11 | Nc1ncn([C@H]2C[C@H](O)[C@@H](CO)O2)c(=O)n1 [decitabine] + COc1ccc2c(c1)CCC1C2CCC2(C)C(NCCCCCCN3C(=O)C=CC3=O)CCC12 [U73122] (first compound 0.1 µM, partner dose 0.4 µM) | 75.2%
12 | Nc1ccn([C@@H]2O[C@H](CO)[C@@H](O)C2(F)F)c(=O)n1 [gemcitabine] + CCCCCCCCCCCC1=C(O)C(=O)C=C(O)C1=O [Embelin] (first compound 0.0004 µM, partner dose 1.2 µM) | 102%
13 | Nc1ccn([C@@H]2O[C@H](CO)[C@@H](O)C2(F)F)c(=O)n1 [gemcitabine] + COC(=O)c1sccc1S(=O)(=O)Nc1ccc(Nc2ccccc2)cc1OC [GSK0660] (first compound 0.0004 µM, partner dose 1 µM) | 89.7%
